Reference: article PMC12136788
The other results are listed elsewhere or left out.

T1: UNK ZnF1-6 (called full-length) (human, UniProt Q9C0B0 30-357)
T1 sequence: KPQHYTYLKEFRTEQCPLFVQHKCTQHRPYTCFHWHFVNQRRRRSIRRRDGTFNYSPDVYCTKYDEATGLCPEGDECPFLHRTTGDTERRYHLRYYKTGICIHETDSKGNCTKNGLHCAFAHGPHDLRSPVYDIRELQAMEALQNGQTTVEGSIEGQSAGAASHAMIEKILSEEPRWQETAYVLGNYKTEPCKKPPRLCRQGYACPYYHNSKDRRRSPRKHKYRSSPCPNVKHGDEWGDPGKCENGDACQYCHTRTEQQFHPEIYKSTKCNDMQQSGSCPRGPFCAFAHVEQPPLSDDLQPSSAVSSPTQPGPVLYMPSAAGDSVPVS

B1: chr12:108783210:108783311:-|3pUTR|ENSG00000084112|msi1|total|mutant (ssRNA)
RNA: GGGAGUUCUACAGUCCGACGAUCUGUUUAUCCUGCUAUGCAGUUUUACAUUGUGUGUUCACAUCUAUUCCAAGGAGCCUUGCCCGAAACAACACUGGCGGUUCCUGCAGGCCAGGCAGGCAUUGGCCCAUGCUGUGUCCCAUACAACAGAGGAUUGAGCAUCA
B2: chr16:56429670:56429771:-|3pUTR|ENSG00000167005|msi1|FALSE|unique (ssRNA)
RNA: GGGAGUUCUACAGUCCGACGAUCCAAUCACUGAGACUGCAUCAGAGUUUGCAAUUUUGUAUGUUUCAUUGCCAAAGAAGGCUUAGUGGUUGUUGACUGUAGUAUAAGUCAGCUUUCUGUAGCAUAAGAUUUGAUUUUCCCAUACAACAGAGGAUUGAGCAUCA
B3: ENSG00000136451:be:win_2751|3pUTR|ENSG00000136451|bound_else_gene|NA|bound_elsewhere_windowed (ssRNA)
RNA: GGGAGUUCUACAGUCCGACGAUCCUUUGUGGUGUUUUCAGGGAGACAGCUGUCUGCAUUCCCUGUAGAAACCCAGCAAUGAUUAUGCACGUUGAGACAUGUGCUUUUUAUUUCUUAGCAAGAUAUUUUAUCUCUGUACAUAAACAACAGAGGAUUGAGCAUCA
B4: chr8:143707665:143708109:-|CDS|ENSG00000255181|control|control|control (ssRNA)
RNA: GGGAGUUCUACAGUCCGACGAUCGCGCGCCCAGCGCUGCGCCAAAGCCAUCGUCCGGCUGGACGAGCAGAACCGCGUGGACCUAGCGCAGAUCCACUGGCAGCGGGCGGAACUGGCCUCGCUCUACCACGGGCGCGAGGACGGCAACAGAGGAUUGAGCAUCA
B5: chr10:72011604:72011705:+|3pUTR|ENSG00000122863|msi1|FALSE|unique (ssRNA)
RNA: GGGAGUUCUACAGUCCGACGAUCCACCUGCCCGGAGACAGAGGGAGCAGCUGAGGCCUCUCUCCACUGGCCGCCAGCCUCCCUAGCACAAGGGGACCAUUCAGCAAUGAGUGUUUACUCAUGUUCUUUCUUGUUGAUGAGUUCCAACAGAGGAUUGAGCAUCA
B6: chr7:139045324:139045425:-|3pUTR|ENSG00000105939|msi1|total|mutant (ssRNA)
RNA: GGGAGUUCUACAGUCCGACGAUCAGUUCAAAACCGCUGUCAUGGCCCCAUGUGAUCUCUCCCUCCCCUACCCCUCUAUCAUUCCGUUUCUUCUGCGCAAGCCACUCUGGCUUCCUUUCAGUUUUGUGGUUCCCAUUUUCCGCUCAACAGAGGAUUGAGCAUCA

Molecular target: T1, UNK ZnF1-6 (called full-length)
Assay: nsRBNS (natural sequence RNA bind-n-seq); RBNS binding buffer (assumed for nsRBNS): 25 mM Tris pH 7.5, 150 mM KCl, 3 mM MgCl2, 0.01% Triton X-100, 500 ug/ml BSA, 20 U/ml SUPERase-In, 4 C; UNK is unkempt and MSI1 is Musashi-1; names of the RNAs are library labels; protein concentration not given here; high values mean tight binding

| Binder | binding signal [enrichment R] |
| --- | --- |
| B1 | 0.767 |
| B2 | 0.52 |
| B3 | 0.864 |
| B4 | 0.579 |
| B5 | 0.501 |
| B6 | 0.949 |
